Inconclusive results, whose numbers are uncertain, are shown with a selection of clear calls. For part of these data: No potency is given beside an inconclusive call; the fits are too rough. A structure can be active in one record and inactive in another. Calls of active or inactive are those of the source. Unless noted, calls come from the whole dose curve; as a rule, active = well fitted curve in the direction sought with a large enough effect in the repeat runs; inconclusive = weak or mixed curves; inactive = no such curve, though single readings can be large; an effect the other way counts as inactive or inconclusive.
Columns and labels:
[1] = biological target: Peroxisome proliferator-activated receptor gamma (Homo sapiens) (UniProt P37231); assay: qHTS assay to identify small molecule agonists of the peroxisome proliferator-activated receptor gamma (PPARg) signaling pathway (AID 743094; active = well fitted activation curve with a large enough effect in the signal ratio in the repeat runs, not every such curve was filed as active; inconclusive = weak or mixed curves, or effect the other way; inactive = no such curve, though single readings can be large or run the other way; the % refers to the signal ratio); conditions: HEK293H PPARg-UAS-bla, beta-lactamase FRET ratio, 17 h; activation: at 57 µM (top of the series) unless noted
UniProt P37231, sequence (P37231 whole entry, looked up): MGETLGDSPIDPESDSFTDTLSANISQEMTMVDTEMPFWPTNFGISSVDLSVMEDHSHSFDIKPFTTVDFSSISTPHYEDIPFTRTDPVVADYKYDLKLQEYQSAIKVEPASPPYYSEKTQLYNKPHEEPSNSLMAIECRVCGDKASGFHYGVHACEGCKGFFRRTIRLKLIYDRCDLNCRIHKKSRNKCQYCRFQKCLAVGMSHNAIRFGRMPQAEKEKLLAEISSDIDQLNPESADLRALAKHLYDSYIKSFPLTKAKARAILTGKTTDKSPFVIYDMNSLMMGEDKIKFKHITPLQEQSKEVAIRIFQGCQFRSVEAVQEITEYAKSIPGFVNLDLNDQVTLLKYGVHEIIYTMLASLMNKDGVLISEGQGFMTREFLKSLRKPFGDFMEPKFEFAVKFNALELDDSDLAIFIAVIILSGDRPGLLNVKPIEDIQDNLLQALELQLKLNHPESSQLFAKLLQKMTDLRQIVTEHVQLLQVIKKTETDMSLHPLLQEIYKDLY
In short: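 Stably transfected HEK293H cells (GeneBLAzer PPARg UAS-bla) were incubated with test substances for 17 h at 37C after a 5 h pre-incubation; beta-lactamase activity was then detected by FRET substrate fluorescence.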

[2] = qHTS assay to identify small molecule antagonists of the peroxisome proliferator-activated receptor gamma (PPARg) signaling pathway - cell viability counter screen (AID 743194); conditions: PPARg-bla HEK293H viability, CellTiter-Glo luminescence, 17 h; Potency: co-treated with 50 nM rosiglitazone unless noted; activity change, negative = cytotoxicity: at 62.6 µM (top of the series), co-treated with 50 nM rosiglitazone unless noted; note: potency is the fitted concentration of half-maximal effect; nearly all actives have a fitted effect of over 55% in size
In short: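 PPARg-UAS-bla HEK293H cells were plated, rested 5 h at 37 C, then treated with compounds plus rosiglitazone (50 nM final) for 17 h at 37 C; viability was then read by CellTiter-Glo luminescence after 30 min at room temperature.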

[3] = qHTS assay to identify small molecule agonists of the peroxisome proliferator-activated receptor delta (PPARd) signaling pathway - cell viability counter screen (AID 743211); conditions: PPARd-bla HEK293H viability, CellTiter-Glo luminescence, 17 h; activity change, negative = cytotoxicity: at 62.6 µM (top of the series); note: nearly all actives have a fitted effect of over 55% in size; note: potency is the fitted concentration of half-maximal effect
In short: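 Counter screen for cytotoxicity run in parallel with the PPARd reporter screen. Beta-lactamase reporter HEK293H cells exposed to compounds 17 h; ATP-based CellTiter-Glo luminescence quantified viability.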

[4] = qHTS assay to identify small molecule antagonists of the retinoic acid receptor (RAR) signaling pathway (AID 1159552; note: nearly all actives have a fitted effect of over 50% in size; note: potency is the fitted concentration of half-maximal effect)
In short: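 Retinol at 1 uM final stimulated RARE-luciferase expression in C3RL4 cells exposed to test compounds for 6 hr at 37 C. Reduced luminescence, read 30 min after detection reagent, indicated pathway antagonism.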

[5] = qHTS assay to identify small molecule antagonists of the estrogen receptor alpha (ER-alpha) signaling pathway using the BG1 cell line - cell viability counter screen (AID 743081); conditions: BG1Luc4E2 viability, CellTiter-Fluor, 22 h; activity change, negative = cytotoxicity: at 70.3 µM (top of the series);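 note: compound given together with 17beta-estradiol as the ER stimulus; potency is the fitted concentration of half-maximal effect; nearly all actives have a fitted effect of over 45% in size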
[6] = biological target: Acetylcholinesterase (Homo sapiens) (UniProt P22303); assay: Acetylcholinesterase (AChE) small molecule antagonists: fluorescence cell-based qHTS assay (AID 1347398; calls by dose curve; note: potency is the fitted concentration of half-maximal effect; nearly all actives have a fitted effect of over 50% in size); conditions: Potency: AChE activity
UniProt P22303, sequence (P22303 whole entry, looked up): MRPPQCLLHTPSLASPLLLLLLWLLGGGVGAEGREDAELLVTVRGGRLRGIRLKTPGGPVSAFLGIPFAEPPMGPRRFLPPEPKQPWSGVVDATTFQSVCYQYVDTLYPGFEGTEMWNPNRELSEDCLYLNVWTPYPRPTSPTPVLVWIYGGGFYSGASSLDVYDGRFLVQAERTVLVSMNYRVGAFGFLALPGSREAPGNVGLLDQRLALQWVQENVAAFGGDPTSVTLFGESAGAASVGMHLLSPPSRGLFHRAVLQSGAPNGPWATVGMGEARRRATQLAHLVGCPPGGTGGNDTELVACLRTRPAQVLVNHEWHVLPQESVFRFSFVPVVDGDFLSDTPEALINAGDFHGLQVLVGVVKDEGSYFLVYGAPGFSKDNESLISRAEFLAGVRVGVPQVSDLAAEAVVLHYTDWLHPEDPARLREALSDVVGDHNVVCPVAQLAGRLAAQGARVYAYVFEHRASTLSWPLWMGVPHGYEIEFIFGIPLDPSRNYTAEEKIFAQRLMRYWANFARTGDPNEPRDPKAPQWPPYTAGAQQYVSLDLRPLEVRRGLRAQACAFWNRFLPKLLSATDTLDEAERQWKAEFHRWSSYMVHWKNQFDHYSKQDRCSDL
In short: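 Thiocholine generated from acetylthiocholine by SH-SY5Y cell AChE is detected with Thiolite Green (Ex/Em 490/520 nm) after 40 min at room temperature, following 30 min compound pretreatment at 37 C.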

[7] = qHTS assay to identify small molecule antagonists of the constitutive androstane receptor (CAR) signaling pathway - cell viability counter screen (AID 1224837); note: nearly all actives have a fitted effect of over 45% in size
In short: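 Fluorescence from CellTiter-Fluor served as the viability signal. Human hepatoma HepG2 cells stably bearing hCAR and CYP2B6-2.2kb received compound plus CITCO (50 nM final) for 23 hr.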

[8] = qHTS assay to identify small molecule agonists of H2AX (AID 1224845; active = well fitted activation curve with a large enough effect in the signal ratio in the repeat runs, not every such curve was filed as active; inconclusive = weak or mixed curves; the % refers to the signal ratio; note: potency is the fitted concentration of half-maximal effect); conditions: CHO-K1 phospho-H2AX Ser139 HTRF, 3 h; series mostly up to 154 µM
In short: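 Wild-type CHO-K1 cells plated overnight, then exposed 3 hr at 37C to compounds at 15 concentrations (0.76% DMSO). Lysed, then HTRF anti-pH2AX(S139)-cryptate/anti-H2AX-d2 detection after 24 hr at room temperature; emissions 665 and 620 nm.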

[9] = A CellTox Green Cytotoxicity Assay to monitor cytotoxicity in HepG2 cells - 32 hour (AID 1224883); note: nearly all actives have a fitted effect of over 50% in size
In short: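 Continuous culture of HepG2 cells with a membrane-impermeant DNA dye; rising fluorescence marks dead cells. Compound exposure lasted up to 40 h at 37 C, with reads every 8 h from 0 h.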

[10] = biological target: Thyrotropin receptor (Homo sapiens) (UniProt P16473); assay: qHTS assay to identify small molecule antagonists of the thyroid stimulating hormone receptor (TSHR) signaling pathway (AID 1259385; calls by dose curve; note: nearly all actives have a fitted effect of over 20% in size); conditions: TSHR-HEK293 cAMP HTRF, TSH-stimulated antagonist mode; series mostly up to 92.4 µM
UniProt P16473, sequence (P16473 whole entry, looked up): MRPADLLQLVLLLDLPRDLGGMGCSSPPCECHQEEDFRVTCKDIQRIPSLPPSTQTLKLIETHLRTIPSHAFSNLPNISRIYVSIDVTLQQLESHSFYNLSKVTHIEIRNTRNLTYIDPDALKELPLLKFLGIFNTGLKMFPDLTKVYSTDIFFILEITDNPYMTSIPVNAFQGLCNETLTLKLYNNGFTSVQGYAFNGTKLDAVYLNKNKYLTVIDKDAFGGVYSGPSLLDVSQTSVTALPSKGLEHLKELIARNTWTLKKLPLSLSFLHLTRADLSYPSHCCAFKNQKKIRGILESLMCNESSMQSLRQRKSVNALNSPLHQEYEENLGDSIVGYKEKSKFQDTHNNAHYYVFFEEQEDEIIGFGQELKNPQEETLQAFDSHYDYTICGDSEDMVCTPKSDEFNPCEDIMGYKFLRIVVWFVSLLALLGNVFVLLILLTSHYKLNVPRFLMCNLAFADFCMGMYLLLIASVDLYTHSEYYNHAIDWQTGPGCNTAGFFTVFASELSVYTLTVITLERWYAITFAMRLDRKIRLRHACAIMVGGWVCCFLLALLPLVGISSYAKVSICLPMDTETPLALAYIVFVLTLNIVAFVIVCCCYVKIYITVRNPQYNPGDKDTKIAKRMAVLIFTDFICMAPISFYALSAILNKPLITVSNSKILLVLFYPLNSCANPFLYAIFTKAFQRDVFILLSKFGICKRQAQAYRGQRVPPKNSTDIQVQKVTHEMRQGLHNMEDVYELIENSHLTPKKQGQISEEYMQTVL
In short: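 TSHR-HEK293 cells were plated and held 18 h at 37C/5% CO2, then given compound plus Ro20-1724 and stimulated with TSH at 1.5 ng/mL final. After 30 min at room temperature, cAMP was detected with cAMP-d2/anti-cAMP-cryptate (1 h) by fluorescence.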

[11] = qHTS assay to identify small molecule antagonists of the estrogen related receptor (ERR) signaling pathway from Tox21 library - cell viability counter screen (AID 1224834); note: nearly all actives have a fitted effect of over 30% in size; note: potency is the fitted concentration of half-maximal effect
In short: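 Viability readout (CellTiter-Fluor fluorescence, 30 min at 37 C) multiplexed with the ERR assay; cells treated 17.5 h at 37 C with compounds delivered in DMSO.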

[12] = qHTS assay to identify small molecule antagonists of the estrogen related receptor signaling pathway with the pleiotropic PPARgamma coactivator (PGC) from Tox21 10K library (AID 1224841; call rule not given here; note: actives are mostly falling curves and most rising ones were filed inactive; nearly all actives have a fitted effect of over 50% in size; note: potency is the fitted concentration of half-maximal effect)
In short: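 Compound exposure ran 18 hours at 37 C in PGC/ERR cells (2,000/well) that had first rested 6 hours in a 37 C/5% CO2 incubator. Luciferase activity was then detected with One-Glo after a 30-minute room-temperature step.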

[13] = biological target: Aryl hydrocarbon receptor (Homo sapiens) (UniProt P35869); assay: qHTS assay to identify small molecule that activate the aryl hydrocarbon receptor (AhR) signaling pathway (AID 743085);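 note: HG2L7.5c1 human HepG2 liver cells with stably integrated DRE-driven firefly reporter; nearly all actives have a fitted effect of over 15% in size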
UniProt P35869, sequence (P35869 whole entry, looked up): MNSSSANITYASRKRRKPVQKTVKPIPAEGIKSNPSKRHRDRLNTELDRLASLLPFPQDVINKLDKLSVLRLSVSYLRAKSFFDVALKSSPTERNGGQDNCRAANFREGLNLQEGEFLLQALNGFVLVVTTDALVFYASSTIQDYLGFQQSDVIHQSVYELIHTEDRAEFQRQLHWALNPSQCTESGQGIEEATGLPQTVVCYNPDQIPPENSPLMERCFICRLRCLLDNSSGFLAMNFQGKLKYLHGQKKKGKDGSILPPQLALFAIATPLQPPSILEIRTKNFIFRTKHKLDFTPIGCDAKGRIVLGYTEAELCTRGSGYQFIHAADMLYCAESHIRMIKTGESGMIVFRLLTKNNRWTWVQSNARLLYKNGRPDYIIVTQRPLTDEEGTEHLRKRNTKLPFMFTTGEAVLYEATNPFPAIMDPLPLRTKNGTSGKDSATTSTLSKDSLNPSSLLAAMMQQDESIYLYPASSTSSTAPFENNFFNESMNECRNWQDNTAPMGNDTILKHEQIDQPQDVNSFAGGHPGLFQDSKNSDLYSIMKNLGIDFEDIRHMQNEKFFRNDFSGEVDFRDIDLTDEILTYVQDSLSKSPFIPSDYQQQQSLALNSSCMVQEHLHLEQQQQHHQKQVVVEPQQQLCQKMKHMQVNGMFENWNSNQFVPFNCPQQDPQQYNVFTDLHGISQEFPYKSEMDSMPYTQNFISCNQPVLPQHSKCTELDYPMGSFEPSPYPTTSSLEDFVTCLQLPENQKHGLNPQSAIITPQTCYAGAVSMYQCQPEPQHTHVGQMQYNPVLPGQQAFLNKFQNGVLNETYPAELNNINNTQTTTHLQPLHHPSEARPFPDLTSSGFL
In short: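 Compounds were tested in HepG2 hepatocellular carcinoma cells harbouring a stably integrated luciferase gene under control of 20 DREs. Increased reporter signal after 24 h treatment at 37C was taken as AhR activation.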

[14] = qHTS assay to identify small molecule agonists of the sonic hedgehog signaling (Shh) pathway - cell viability counter screen (AID 1259366)
In short: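 Cells are plated at 2,000 per well and left 4hr at 37C, 5% CO2 before compound addition. After 23hr of treatment, CellTiter-Fluor reagent is added for 1hr at 37C and fluorescence is measured.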

[15] = qHTS assay to identify small molecule antagonists of the androgen receptor (AR) signaling pathway - cell viability counter screen (AID 743033; note: potency is the fitted concentration of half-maximal effect; nearly all actives have a fitted effect of over 45% in size)
[16] = Caspase-3/7 induction in HepG2 cells by small molecules, qHTS cell viability counter screen (AID 1346981); note: nearly all actives have a fitted effect of over 30% in size; note: potency is the fitted concentration of half-maximal effect
In short: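 Counter screen for cytotoxicity: HepG2 exposed 16 hr to compounds, then CellTiter-Fluor viability signal (fluorescence, 1 hr reagent incubation).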

[17] = qHTS assay to identify small molecule antagonists of the sonic hedgehog signaling (Shh) pathway - cell viability counter screen (AID 1259367); note: potency is the fitted concentration of half-maximal effect; nearly all actives have a fitted effect of over 55% in size
In short: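 After a 4 hr settling period, 3T3 Gli1-Luc cells were treated with DMSO-dissolved chemicals and conditioned medium, kept 24 hr at 37C in 5% CO2, and assayed for viability by CellTiter-Fluor fluorescence following 1 hr reagent incubation.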

[18] = Human pregnane X receptor (PXR) small molecule agonists, qHTS cell viability counter screen (AID 1346977)
In short: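 Cytotoxicity counter screen run in the same wells as the PXR luciferase assay, using PXR-Luc HepG2 cells in charcoal-stripped serum medium. Viability: CellTiter-Fluor fluorescence after 24hr compound treatment.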
Tags give direction and shape of the fitted curve or compound fluorescence and quenching.

C[N+]1(C)CCCCC1
Potency [1]: inactive
Potency [2]: inconclusive [rising, partial curve, poor fit]
Potency [3]: inconclusive [rising, partial curve, poor fit]
Potency [4]: inconclusive [inhibitor, partial curve]

CC[N+](CC)(CC)CC
Potency [5]: inconclusive [rising, full curve, poor fit]

CCOP(=S)(OCC)Oc1ccc(S(C)=O)cc1 (stereo not drawn)
Potency [3]: inactive
Potency [6]: inconclusive [inhibitor, partial curve]

O=[N+]([O-])c1ccc2c3c(cccc13)CC2
Potency [1]: inactive
Potency [7]: inactive
Potency [8]: inconclusive [rising, partial curve]
Potency [9]: inactive
Potency [10]: inactive

COC(=O)c1ccccc1C(=O)OC
Potency [11]: inconclusive [cytotoxic, single point]
Potency [12]: active: 38.8 µM and inactive

O=C(N[C@H]1CN2CCC1CC2)c1ccc2c(c1)OCCO2
Potency [13]: inactive
Potency [14]: inconclusive [cytotoxic, single point]
Potency [6]: inconclusive [inhibitor, partial curve]

CC[C@@H](CO)NC(=O)[C@@H]1C=C2c3cccc4[nH]cc(c34)C[C@H]2N(C)C1
Potency [15]: inconclusive [rising, partial curve, poor fit]
Potency [6]: inconclusive [inhibitor, partial curve]

CCCCCCCCOC(=O)c1ccc(C(=O)OCCCCCCCC)c(C(=O)OCCCCCCCC)c1
Potency [4]: inconclusive [inhibitor, partial curve, poor fit]
Potency [16]: inactive

CCCN1CCC[C@@H]2Cc3nc(N)ncc3C[C@H]21
Potency [1]: inactive
Potency [11]: inactive
Potency [16]: inconclusive [rising, full curve]
Potency [6]: inconclusive [inhibitor, single point]

CCCCCCCCBr
Potency [4]: inactive

CCOC(C(=O)OCCN(C)C)(c1ccccc1)c1ccccc1
Potency [4]: inactive
Potency [8]: inactive
Potency [17]: inconclusive [cytotoxic, partial curve, poor fit]
Potency [18]: inconclusive [cytotoxic, partial curve, poor fit]

C[C@]12CC[C@H]3[C@@H](CCC4=CC(=O)CC[C@@H]43)[C@@H]1CC[C@@H]2OC(=O)CCC1CCCCC1
Potency [4]: inconclusive [inhibitor, single point]
Potency [8]: inconclusive [activator, partial curve]
Potency [9]: inactive
